Assay results as given in the supplement of paper PMC12423691.
The list shows a part of the results. Binding of human transcription factors and regulators to the viral nucleoprotein by AlphaScreen, crude cell-free proteins, amounts not normalised, one pass. Fold of the Venus control; higher = more signal. No active / inactive call. Single-pass screen; sequences are the whole Swiss-Prot entries looked up by name.

B1: SFRP4, Q6FHJ7 (protein)
chain: MFLSILVALCLWLHLALGVRGAPCEAVRIPMCRHMPWNITRMPNHLHHSTQENAILAIEQYEELVDVNCSAVLRFFLCAMYAPICTLEFLHDPIKPCKSVCQRARDDCEPLMKMYNHSWPESLACDELPVYDRGVCISPEAIVTDLPEDVKWIDITPDMMVQERPLDVDCKRLSPDRCKCKKVKPTLATYLSKNYSYVIHAKIKAVQRSGCNEVTTVVDVKEIFKSSSPIPRTQVPLITNSSCQCPHILPHQDVLIMCYEWRSRMMLLENCLVEKWRDQLSKRSIQWEERLQEQRRTVQDKKKTAGRTSRSNPPKPKGKPPAPKPASPKKNIKTRSAQKRTNPKRV
B2: PRDM5, Q9NQX1 (protein)
chain: MLGMYVPDRFSLKSSRVQDGMGLYTARRVRKGEKFGPFAGEKRMPEDLDENMDYRLMWEVRGSKGEVLYILDATNPRHSNWLRFVHEAPSQEQKNLAAIQEGENIFYLAVEDIETDTELLIGYLDSDMEAEEEEQQIMTVIKEGEVENSRRQSTAGRKDRLGCKEDYACPQCESSFTSEDILAEHLQTLHQKPTEEKEFKCKNCGKKFPVKQALQRHVLQCTAKSSLKESSRSFQCSVCNSSFSSASSFEQHQETCRGDARFVCKADSCGKRLKSKDALKRHQENVHTGDPKKKLICSVCNKKCSSASSLQEHRKIHEIFDCQECMKKFISANQLKRHMITHSEKRPYNCEICNKSFKRLDQVGAHKVIHSEDKPYKCKLCGKGFAHRNVYKNHKKTHSEERPFQCEECKALFRTPFSLQRHLLIHNSERTFKCHHCDATFKRKDTLNVHVQVVHERHKKYRCELCNKAFVTPSVLRSHKKTHTGEKEKICPYCGQKFASSGTLRVHIRSHTGERPYQCPYCEKGFSKNDGLKMHIRTHTREKPYKCSECSKAFSQKRGLDEHKRTHTGEKPFQCDVCDLAFSLKKMLIRHKMTHNPNRPLAECQFCHKKFTRNDYLKVHMDNIHGVADS
B3: TRIM8, Q9BZR9 (protein)
chain: MAENWKNCFEEELICPICLHVFVEPVQLPCKHNFCRGCIGEAWAKDSGLVRCPECNQAYNQKPGLEKNLKLTNIVEKFNALHVEKPPAALHCVFCRRGPPLPAQKVCLRCEAPCCQSHVQTHLQQPSTARGHLLVEADDVRAWSCPQHNAYRLYHCEAEQVAVCQYCCYYSGAHQGHSVCDVEIRRNEIRKMLMKQQDRLEEREQDIEDQLYKLESDKRLVEEKVNQLKEEVRLQYEKLHQLLDEDLRQTVEVLDKAQAKFCSENAAQALHLGERMQEAKKLLGSLQLLFDKTEDVSFMKNTKSVKILMDRTQTCTSSSLSPTKIGHLNSKLFLNEVAKKEKQLRKMLEGPFSTPVPFLQSVPLYPCGVSSSGAEKRKHSTAFPEASFLETSSGPVGGQYGAAGTASGEGQSGQPLGPCSSTQHLVALPGGAQPVHSSPVFPPSQYPNGSAAQQPMLPQYGGRKILVCSVDNCYCSSVANHGGHQPYPRSGHFPWTVPSQEYSHPLPPTPSVPQSLPSLAVRDWLDASQQPGHQDFYRVYGQPSTKHYVTS
B4: ZNF444, Q8N0Y2 (protein)
chain: MEVAVPVKQEAEGLALDSPWHRFRRFHLGDAPGPREALGLLRALCRDWLRPEVHTKEQMLELLVLEQFLSALPADTQAWVCSRQPQSGEEAVALLEELWGPAASPDGSSATRVPQDVTQGPGATGGKEDSGMIPLAGTAPGAEGPAPGDSQAVRPYKQEPSSPPLAPGLPAFLAAPGTTSCPECGKTSLKPAHLLRHRQSHSGEKPHACPECGKAFRRKEHLRRHRDTHPGSPGSPGPALRPLPAREKPHACCECGKTFYWREHLVRHRKTHSGARPFACWECGKGFGRREHVLRHQRIHGRAAASAQGAVAPGPDGGGPFPPWPLG
B5: CRTC1, Q6UUV9 (protein)
chain: MATSNNPRKFSEKIALHNQKQAEETAAFEEVMKDLSLTRAARLQLQKSQYLQLGPSRGQYYGGSLPNVNQIGSGTMDLPFQTPFQSSGLDTSRTTRHHGLVDRVYRERGRLGSPHRRPLSVDKHGRQADSCPYGTMYLSPPADTSWRRTNSDSALHQSTMTPTQPESFSSGSQDVHQKRVLLLTVPGMEETTSEADKNLSKQAWDTKKTGSRPKSCEVPGINIFPSADQENTTALIPATHNTGGSLPDLTNIHFPSPLPTPLDPEEPTFPALSSSSSTGNLAANLTHLGIGGAGQGMSTPGSSPQHRPAGVSPLSLSTEARRQQASPTLSPLSPITQAVAMDALSLEQQLPYAFFTQAGSQQPPPQPQPPPPPPPASQQPPPPPPPQAPVRLPPGGPLLPSASLTRGPQPPPLAVTVPSSLPQSPPENPGQPSMGIDIASAPALQQYRTSAGSPANQSPTSPVSNQGFSPGSSPQHTSTLGSVFGDAYYEQQMAARQANALSHQLEQFNMMENAISSSSLYSPGSTLNYSQAAMMGLTGSHGSLPDSQQLGYASHSGIPNIILTVTGESPPSLSKELTSSLAGVGDVSFDSDSQFPLDELKIDPLTLDGLHMLNDPDMVLADPATEDTFRMDRL
B6: NFKBIB, Q15653 (protein)
chain: MAGVACLGKAADADEWCDSGLGSLGPDAAAPGGPGLGAELGPGLSWAPLVFGYVTEDGDTALHLAVIHQHEPFLDFLLGFSAGTEYMDLQNDLGQTALHLAAILGETSTVEKLYAAGAGLCVAERRGHTALHLACRVGAHACARALLQPRPRRPREAPDTYLAQGPDRTPDTNHTPVALYPDSDLEKEEEESEEDWKLQLEAENYEGHTPLHVAVIHKDVEMVRLLRDAGADLDKPEPTCGRSPLHLAVEAQAADVLELLLRAGANPAARMYGGRTPLGSAMLRPNPILARLLRAHGAPEPEGEDEKSGPCSSSSDSDSGDEGDEYDDIVVHSSRSQTRLPPTPASKPLPDDPRPV
B7: MYOD1, P15172 (protein)
chain: MELLSPPLRDVDLTAPDGSLCSFATTDDFYDDPCFDSPDLRFFEDLDPRLMHVGALLKPEEHSHFPAAVHPAPGAREDEHVRAPSGHHQAGRCLLWACKACKRKTTNADRRKAATMRERRRLSKVNEAFETLKRCTSSNPNQRLPKVEILRNAIRYIEGLQALLRDQDAAPPGAAAAFYAPGPLPPGRGGEHYSGDSDASSPRSNCSDGMMDYSGPPSGARRRNCYEGAYYNEAPSEPRPGKSAAVSSLDCLSSIVERISTESPAAPALLLADVPSESPPRRQEAAAPSEGESSGDPTQSPDAAPQCPAGANPNPIYQVL

Molecular target: nucleoprotein N of Crimean-Congo hemorrhagic fever virus
Experiment: AlphaScreen luminescence signal relative to Venus negative control (fold); higher = stronger binding to CCHFV N
Method: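 AlphaScreen binding of cell-free made, FLAG-GST-tagged human transcription factors and regulators (crude translation products) to biotinylated N protein; signal as fold of the FLAG-GST-Venus control. One pass.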

| Binder | AlphaScreen luminescence signal |
| --- | --- |
| B1 | 6.09 |
| B2 | 3.44 |
| B3 | 1.63 |
| B4 | 2.19 |
| B5 | 2.14 |
| B6 | 1.63 |
| B7 | 2.23 |
